{"source": "paper PMC4336329", "about": "(PLoS ONE, 2015)", "note": "The whole screen tested about 310,000 compounds, of which about 2,200 (0.71%) showed an effect of 50% or more. The effect is printed as a negative number. The list shows a part of the results.", "data": [{"molecular_target": "human ether-à-go-go-related gene (hERG) potassium channel (human, UniProt Q12809)", "sequence (Q12809 whole entry, looked up)": "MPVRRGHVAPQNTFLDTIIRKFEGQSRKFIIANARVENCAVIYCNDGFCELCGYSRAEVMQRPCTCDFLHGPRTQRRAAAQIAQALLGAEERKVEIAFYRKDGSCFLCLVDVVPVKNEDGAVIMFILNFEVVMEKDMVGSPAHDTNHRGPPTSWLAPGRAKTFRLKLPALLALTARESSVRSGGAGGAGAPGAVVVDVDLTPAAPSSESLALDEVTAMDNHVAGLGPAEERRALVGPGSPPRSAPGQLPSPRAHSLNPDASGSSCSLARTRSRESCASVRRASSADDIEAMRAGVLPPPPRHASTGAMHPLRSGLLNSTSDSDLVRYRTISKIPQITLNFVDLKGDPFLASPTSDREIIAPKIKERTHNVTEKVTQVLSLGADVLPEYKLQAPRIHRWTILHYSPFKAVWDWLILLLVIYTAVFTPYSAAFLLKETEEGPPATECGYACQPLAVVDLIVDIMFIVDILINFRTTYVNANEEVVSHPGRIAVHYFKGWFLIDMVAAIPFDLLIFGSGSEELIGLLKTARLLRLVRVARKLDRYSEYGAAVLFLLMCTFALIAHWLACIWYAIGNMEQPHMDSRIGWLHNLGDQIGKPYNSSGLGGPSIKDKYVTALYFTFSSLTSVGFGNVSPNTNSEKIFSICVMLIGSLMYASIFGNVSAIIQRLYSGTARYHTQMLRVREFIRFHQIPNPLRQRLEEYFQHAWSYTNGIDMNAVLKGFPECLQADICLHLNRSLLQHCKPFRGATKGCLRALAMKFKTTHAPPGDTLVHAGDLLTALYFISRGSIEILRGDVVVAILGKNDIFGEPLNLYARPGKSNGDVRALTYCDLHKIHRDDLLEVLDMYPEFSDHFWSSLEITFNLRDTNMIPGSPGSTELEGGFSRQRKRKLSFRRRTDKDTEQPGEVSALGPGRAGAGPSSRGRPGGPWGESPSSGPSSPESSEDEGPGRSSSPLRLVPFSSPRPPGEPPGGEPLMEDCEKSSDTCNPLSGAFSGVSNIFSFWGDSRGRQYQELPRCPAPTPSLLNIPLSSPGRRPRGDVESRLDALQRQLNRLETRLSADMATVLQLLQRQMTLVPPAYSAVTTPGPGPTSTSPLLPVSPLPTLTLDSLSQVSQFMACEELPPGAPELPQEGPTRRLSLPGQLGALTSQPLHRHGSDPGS", "experiment": "primary screen, population patch clamp on CHO cells stably expressing hERG", "units": {"hERG current change (%, negative = inhibition) at 1uM": "%"}, "values": [{"smiles": "CCS(=O)(=O)n1nc(-c2ccc(Cl)cc2)nc1N", "hERG current change (%, negative = inhibition) at 1uM": 14.5}, {"smiles": "CN(c1ccccc1)S(=O)(=O)c1ccc(Cl)c(C(=O)OCC(N)=O)c1", "hERG current change (%, negative = inhibition) at 1uM": 17.6}, {"smiles": "COc1cccc(-c2csc(NNC(=O)c3cccs3)n2)c1", "hERG current change (%, negative = inhibition) at 1uM": 13}, {"smiles": "O=C(Nc1nccs1)c1cccc(NC(=O)C2CC2)c1", "hERG current change (%, negative = inhibition) at 1uM": 1.93}, {"smiles": "COc1ccc(C2SCC(=O)N2CCCN(C)C)cc1.Cl", "note": "(centres unmarked)", "hERG current change (%, negative = inhibition) at 1uM": 13.1}, {"smiles": "CN(C)S(=O)(=O)Oc1cccc(C(=O)Nc2ccccc2Cl)c1", "hERG current change (%, negative = inhibition) at 1uM": -2.9}, {"smiles": "COc1ccc(NC(=O)CCCNC(=O)c2ccc(Cl)cc2)cc1OC", "hERG current change (%, negative = inhibition) at 1uM": 13.1}, {"smiles": "Cc1cc(NC(=O)c2ccc(F)cc2)n(-c2ccccc2)n1", "hERG current change (%, negative = inhibition) at 1uM": -75.3}, {"smiles": "O=S(=O)(c1cccc(Cn2nnc(-c3ccc(F)cc3)n2)c1)N1CCOCC1", "hERG current change (%, negative = inhibition) at 1uM": 5.57}, {"smiles": "CCCn1c(CN2CCN(C(=O)OCC)CC2)nc2c1c(=O)n(C)c(=O)n2C", "hERG current change (%, negative = inhibition) at 1uM": 4.58}, {"smiles": "CC(=O)Nc1sc2c(c1C(c1ccccc1Cl)N1CCN(CCO)CC1)CCCC2", "note": "(centres unmarked)", "hERG current change (%, negative = inhibition) at 1uM": 4.8}, {"smiles": "COc1ccc(CC(=O)OCCc2cc3cc(OC)c(OC)cc3c(=O)o2)cc1", "hERG current change (%, negative = inhibition) at 1uM": 11.2}, {"smiles": "S=c1nc(-c2cc(Cl)ccc2Cl)[nH][nH]1", "hERG current change (%, negative = inhibition) at 1uM": 10.7}, {"smiles": "CC(NCc1ccccc1C(F)(F)F)C(O)c1ccccc1.Cl", "note": "(centres unmarked)", "hERG current change (%, negative = inhibition) at 1uM": 7.43}, {"smiles": "COC(=O)c1sc(NC(=O)c2ccc(C)o2)nc1C", "hERG current change (%, negative = inhibition) at 1uM": 4.98}, {"smiles": "C=CCn1c(SC)nc2sc3c(c2c1=O)CCc1ccccc1-3", "hERG current change (%, negative = inhibition) at 1uM": 12.5}, {"smiles": "Cc1oc(-c2cccs2)nc1CS(=O)CC(=O)NCCCN1CC(C)CC(C)C1", "note": "(centres unmarked)", "hERG current change (%, negative = inhibition) at 1uM": 15.3}, {"smiles": "CCOC(=O)c1c(NC(=O)C2COc3ccccc3O2)sc(C)c1C", "note": "(centres unmarked)", "hERG current change (%, negative = inhibition) at 1uM": 1.09}, {"smiles": "COC(=O)/C(=C/c1ccc(F)cc1)NC(C)=O", "hERG current change (%, negative = inhibition) at 1uM": -0.329}, {"smiles": "O=C(NC(=S)Nc1ccccc1Br)C1CCCC1", "hERG current change (%, negative = inhibition) at 1uM": 11.8}, {"smiles": "CCOC(=O)c1cc(/C(C)=N/OC(=O)c2ccc(Cl)cc2)on1", "hERG current change (%, negative = inhibition) at 1uM": 7.68}, {"smiles": "O=C(O)COc1ccccc1/C=N/NC(=O)c1ccc2c(c1)OCCO2", "hERG current change (%, negative = inhibition) at 1uM": 4.57}, {"smiles": "COc1cc2[nH]ccc(=O)c2cc1OC", "hERG current change (%, negative = inhibition) at 1uM": 6.98}, {"smiles": "CC(=O)N(C)c1ccc(N=Nc2c(C)[nH]n(C(N)=S)c2=O)cc1", "hERG current change (%, negative = inhibition) at 1uM": 5.64}, {"smiles": "COc1ccc(CCNC(=O)CSc2ccccc2)cc1OC", "hERG current change (%, negative = inhibition) at 1uM": 13.5}, {"smiles": "Cc1ccc(NS(=O)(=O)c2cc(OCC(N)=O)c(C)cc2Cl)cc1C", "hERG current change (%, negative = inhibition) at 1uM": 2.15}, {"smiles": "COc1ccc(N=C(C)C2=C(O)CSC2=O)cc1", "hERG current change (%, negative = inhibition) at 1uM": 4.56}, {"smiles": "CN(C)c1ccc(/C=N\\NC(=S)SCN2C(=O)C3CCC(C)(C2=O)C3(C)C)cc1", "note": "(centres unmarked)", "hERG current change (%, negative = inhibition) at 1uM": 8.65}, {"smiles": "CCC(=O)NC(c1cccs1)c1cc([N+](=O)[O-])c2cccnc2c1O", "note": "(centres unmarked)", "hERG current change (%, negative = inhibition) at 1uM": 5.56}, {"smiles": "CCNc1nc(NC(C)(C)C)nc(SCC(N)=O)n1", "hERG current change (%, negative = inhibition) at 1uM": 7.57}, {"smiles": "Cc1cc(Cl)ccc1NC(=S)NCCc1ccc(Cl)cc1", "hERG current change (%, negative = inhibition) at 1uM": 11.4}, {"smiles": "CCCc1cc(=O)oc2c(C)c(OCC(=O)NC3CC(C)(C)NC(C)(C)C3)ccc12", "hERG current change (%, negative = inhibition) at 1uM": 10.2}, {"smiles": "CCOC(=O)CSc1nc(C(C)(C)C)cc(C(F)(F)F)c1C#N", "hERG current change (%, negative = inhibition) at 1uM": 7.34}, {"smiles": "COc1cc(C(=O)Nc2ccc(F)cc2Cl)ccc1OCC(=O)N1CCOCC1", "hERG current change (%, negative = inhibition) at 1uM": 11.2}, {"smiles": "Cc1nnc(SCC(=O)NCc2ccco2)n1-c1ccccc1", "hERG current change (%, negative = inhibition) at 1uM": 21.7}, {"smiles": "COc1ccc(Cl)cc1NC(=O)c1cccc(N2C(=O)C3CC=CCC3C2=O)c1", "note": "(centres unmarked)", "hERG current change (%, negative = inhibition) at 1uM": 3.43}, {"smiles": "Cc1c(C)n(CCC#N)c2ccc(Cl)cc12", "hERG current change (%, negative = inhibition) at 1uM": 3.74}, {"smiles": "COCCCNC(=O)/C(=C\\c1cccn1C)NC(=O)c1cccs1", "hERG current change (%, negative = inhibition) at 1uM": 17.8}, {"smiles": "Cc1ccc(C)c(N(CC(=O)NN=C2CCN(C)CC2)S(=O)(=O)c2ccccc2)c1", "hERG current change (%, negative = inhibition) at 1uM": 5.29}, {"smiles": "O=C(O)CCCC(=O)N1N=C(c2ccco2)CC1c1ccco1", "note": "(centres unmarked)", "hERG current change (%, negative = inhibition) at 1uM": 11.3}, {"smiles": "CC(=O)c1cccc(NS(=O)(=O)c2ccc(N/C=C/C(=O)c3ccc(F)cc3)cc2)c1", "hERG current change (%, negative = inhibition) at 1uM": 1.07}, {"smiles": "C=CCN([C@@H](CC(C)C)C(=O)OC)S(=O)(=O)N(CC=C)[C@@H](CC(C)C)C(=O)OC", "hERG current change (%, negative = inhibition) at 1uM": 18.4}, {"smiles": "CCN(CC)S(=O)(=O)c1cccc(S(=O)(=O)N2CCCCC2)c1", "hERG current change (%, negative = inhibition) at 1uM": 5.86}, {"smiles": "O=C(Nc1cc(Cl)cc(Cl)c1)N1CCCC1", "hERG current change (%, negative = inhibition) at 1uM": 12.7}, {"smiles": "COc1ccc(C(=O)N/C(=C\\c2ccccc2)C(=O)NC(CCSC)C(=O)O)cc1", "note": "(centres unmarked)", "hERG current change (%, negative = inhibition) at 1uM": 16.4}, {"smiles": "Cc1cccc(NC(=O)CSCC(=O)Nc2cccc(S(=O)(=O)N3CCCCCC3)c2)c1", "hERG current change (%, negative = inhibition) at 1uM": 9.88}, {"smiles": "N#Cc1ccc(-c2ccco2)nc1SCc1ccccc1", "hERG current change (%, negative = inhibition) at 1uM": 3.03}, {"smiles": "CCCS(=O)(=O)N1CCCC(C(=O)Nc2ccc3c(c2)CCC3)C1", "note": "(centres unmarked)", "hERG current change (%, negative = inhibition) at 1uM": 7.89}, {"smiles": "Cc1nc(-c2ccccc2)nc2[nH]c(C(C)C)cc(=O)c12", "hERG current change (%, negative = inhibition) at 1uM": -5.88}, {"smiles": "CN(C(=O)c1ccccn1)c1nnc(-c2ccccn2)s1", "hERG current change (%, negative = inhibition) at 1uM": 10.1}, {"smiles": "CCCCNc1c(-c2ccc(OC)c(SC3CCCCC3)c2)nc2cc(C)ccn12.O=C(O)C(F)(F)F", "hERG current change (%, negative = inhibition) at 1uM": 11.8}, {"smiles": "CCCc1nc(SCC(=O)c2ccccc2)c2c(=O)n(C)c(=O)n(C)c2n1", "hERG current change (%, negative = inhibition) at 1uM": 7.9}, {"smiles": "O=C1C(=O)c2ccccc2C(O)=C1c1cccc([N+](=O)[O-])c1", "hERG current change (%, negative = inhibition) at 1uM": 13}, {"smiles": "CCN(C(=O)CSc1nc2c(cnn2-c2ccccc2)c(=O)[nH]1)C1CCS(=O)(=O)C1", "note": "(centres unmarked)", "hERG current change (%, negative = inhibition) at 1uM": 4.66}, {"smiles": "Cc1ccc(-c2n[nH]c(=S)n2/N=C/c2c(C)[nH]n(-c3ccccc3)c2=O)cc1", "hERG current change (%, negative = inhibition) at 1uM": 13.5}, {"smiles": "COc1ccc(/C=C/C(=O)O)cc1OC", "hERG current change (%, negative = inhibition) at 1uM": 13.3}, {"smiles": "Cc1cc(-c2ccccc2N)n[nH]1", "hERG current change (%, negative = inhibition) at 1uM": 1.77}, {"smiles": "Cl.N#Cc1ccc(C(c2nnnn2Cc2ccccc2)N2CCCC2)cc1", "note": "(centres unmarked)", "hERG current change (%, negative = inhibition) at 1uM": 9.21}, {"smiles": "Cc1nc(N2CCNCC2)c2c3c(sc2n1)CCCC3", "hERG current change (%, negative = inhibition) at 1uM": 1.04}]}]}
